# In the supplement of paper PMC11283458:
# Structures can show the parent of a compound that is named as a salt. The list shows a part of the results. Many values rest on one well or one pass, so single values are uncertain.
# Experiments:
# [1] = test system: Mef2d microexon dual Nano/Firefly luciferase splicing reporter in Neuro-2a cells; assay: B-score of Firefly/Nano luminescence ratio, V1 Mef2d microexon reporter (B-score (plate-normalised)); higher = more Mef2d microexon inclusion; conditions: 24 h
# [2] = test system: Mef2d microexon dual Nano/Firefly luciferase splicing reporter in Neuro-2a cells; assay: B-score of Nano/Firefly luminescence ratio, V2 Mef2d microexon reporter (B-score (plate-normalised)); higher = more Mef2d microexon inclusion; conditions: 24 h
# 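For B-score of Nano/Firefly luminescence ratio, V2 Mef2d microexon reporter in this document: compounds at 4 µM (PKI library 0.5 µM) on Dox-inducible N2A Flp-In cells with PEST-tagged luciferases, 384-well plates, B-score from per-plate median-polish residual over median absolute residual.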
Structure (SMILES),B-score [1],B-score [2]
CS(=O)c1sc(C(=O)OCc2ccccc2)c2c1C(=O)CC(C)(C)C2 (centres undefined) (4 µM),6.11,3.56
NC(=O)c1ccc(CNc2ccccc2-c2ccccc2)c([N+](=O)[O-])c1 (4 µM),-2.04,-4.86
CN(Cc1cnc2nc(N)nc(N)c2n1)c1ccc(C(=O)N[C@@H](CCC(=O)O)C(=O)O)cc1.O (4 µM),-5.71,-12.8
CC(C)N(C(=O)c1ccc(-c2ccccc2F)cc1)C(C)C (4 µM),0.355,13.2
COC(=O)c1sc(S(C)(=O)=O)c2c1CC(C)(C)CC2=O (4 µM),-0.744,-5.34
COc1cc(NC(C)CCCN)c2ncccc2c1 (centres undefined) [Primaquine diphosphate] (4 µM),7.76,4.24
"Nc1c2c(nc3ccccc13)CCCC2 [9-Amino-1,2,3,4-tetrahydroacridine hydrochloride] (4 µM)",9.74,13.7
O=C1Nc2ccccc2/C1=C/c1c[nH]nc1-c1ccccc1[N+](=O)[O-] (4 µM),4.47,7.6
Cc1noc(C)c1C(=O)ON=C(N)c1cc(C(F)(F)F)cc(C(F)(F)F)c1 (4 µM),11.3,3.07
Cc1noc(C)c1C(=O)NNC(=O)c1ccc(Cl)cc1 (4 µM),14.1,2.01
Cc1onc(-c2ccccc2Cl)c1C(=O)ON=C1C2CC3CC(C2)CC1C3 (4 µM),9.21,3.09
Cc1csc(-c2nnc(Nc3ccc(Oc4ncccc4-c4ccnc(N)n4)cc3)c3ccccc23)c1 (0.5 µM),-1.94,-5.56
CC(=Nc1ccccc1N)c1c(C)cc(=O)n(O)c1O (4 µM),13.5,1.98
O=C(Oc1c(CN2CCOCC2)cc(Cl)c2cccnc12)c1ccc([N+](=O)[O-])cc1 (4 µM),-1.93,34.6
CC(C)[C@H](CO)Nc1nc(Nc2cccc(Cl)c2)c2ncn(C(C)C)c2n1 [Purvalanol A] (4 µM),3.3,13.2
O=C1c2c(O)ccc(O)c2C(=O)c2c(NCCNCCO)ccc(NCCNCCO)c21 [Mitoxantrone] (4 µM),-12.7,-13.8
Fc1c(CSC2=NCCN2)cccc1CSC1=NCCN1 (4 µM),3.75,0.953
Cc1cc(-c2ccc(N=Cc3cccc([N+](=O)[O-])c3)c(C)c2)ccc1N=Cc1cccc([N+](=O)[O-])c1 (4 µM),-6.01,-4.5
O=C1C(=C2NC(c3ccccn3)C3C(=O)N(c4ccc(OC(F)(F)F)cc4)C(=O)C23)C(=O)c2ccccc21 (centres undefined) (4 µM),7.34,7.45
O=C(NCc1nnc2ccccn12)Nc1ccc(F)cc1 (4 µM),-5.4,-1.27
Cc1ccc(Cc2cnc(NC(=O)c3cnn(C)c3)s2)cc1 (4 µM),-7.74,-11.4
O=c1cnc2ccccc2n1Cc1cc(Cl)c2c(c1)OCCO2 (4 µM),7.04,1.72
